Results reported in the supplement of paper PMC7826260.
The other results are listed elsewhere or left out. One pool of 16,384 single-stranded DNAs met each Rep nickase domain in vitro (1 h at 37 °C, 3 µM enzyme); the outer parts of the 90-letter strands are left off. Numbers give uncut DNA relative to the enzyme-free pool, as log2; strong cutting gives strongly negative numbers. There is no active / inactive call. Shares of all reads are compared; where an enzyme cuts many sequences, the uncut ones exceed 0.

System: T1, Rep nickase domain of Muscovy duck circovirus
T1 sequence (residues 1-111 of Rep, tag left off): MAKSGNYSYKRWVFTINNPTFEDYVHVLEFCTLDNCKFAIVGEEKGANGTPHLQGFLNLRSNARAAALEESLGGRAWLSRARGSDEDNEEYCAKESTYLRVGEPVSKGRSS
Experiment: uncleaved DNA left, log2 of reads against the no-enzyme library (log2 ratio); higher = less cleavage (more negative = more Rep cleavage of the k-mer); sequences stand for … in CTCGTCCG…ACCGGAGA
Procedure: (§1)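 A pool of 90-nt single-stranded DNAs with seven random bases just before the constant AC of the nick site (name = the seven bases) was cut by 3 µM recombinant His6-SUMO-tagged Rep nickase domain (300 nM DNA, 50 mM HEPES pH 8.0, 50 mM NaCl, 1 mM MnCl2, 1 h, 37 °C, three replicates). Uncut DNA was amplified and sequenced.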

Sequence | uncleaved DNA left (log2)
ATACATA | 0.0168
GTGAGCG | -0.0416
CACCATA | 0.0641
CCTCGCA | -0.00215
AGGTTGC | -0.0559
TGCCGTG | -0.0815
GTCAGAG | 0.0427
GCCAGGC | -0.139
ATCCGGA | -0.0307
GTTCGAG | 0.00318
GAGGATG | -0.036
CGTCGTT | -0.0783
CGAGTCA | -0.0338
GCAGTCG | 0.144
TACCGTT | -0.0757
ATGGGAA | -0.0516
ATAGCGC | -0.00124
TCATGGA | 0.0689
GACCTTG | 0.0533
AGTCTGT | 0.142

Sequence | uncleaved DNA left (log2)
TACTCTG | 0.0291
AGACTCA | 0.0317
GCGGAAG | 0.076
CGTTAGT | -1.61
CTCGAGC | 0.16
TAACTCT | -0.0258
CAGAAAC | 0.124
AACGGGG | 0.151
ACCACCT | -0.0946
TCACGCA | 0.0051
TGTAGCG | 0.0534
GTCCTTC | 0.0187
TTCACAG | -0.0421
TGTCCCC | -0.0559
CTGAAGT | 8.7e-05
TGCACAG | -0.0197
CCTGGAA | -0.0488
TATCATG | -0.0323
AATACTT | -1
GGCTTCG | 0.121

System: T2, Rep nickase domain of banana bunchy top virus
T2 sequence (residues 1-94 of Rep, tag left off): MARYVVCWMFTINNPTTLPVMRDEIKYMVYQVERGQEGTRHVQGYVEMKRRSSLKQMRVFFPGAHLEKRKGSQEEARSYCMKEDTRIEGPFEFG
Experiment: as above
Procedure: as §1

Sequence | uncleaved DNA left (log2)
ATACATA | 0.0454
GTGAGCG | -0.0569
CACCATA | 0.0646
CCTCGCA | 0.0499
AGGTTGC | -0.0528
TGCCGTG | -0.0202
GTCAGAG | 0.161
GCCAGGC | -0.0885
ATCCGGA | -0.122
GTTCGAG | 0.0306
GAGGATG | -0.088
CGTCGTT | -0.0992
CGAGTCA | -0.0109
GCAGTCG | 0.157
TACCGTT | -0.174
ATGGGAA | -0.117
ATAGCGC | -0.0803
TCATGGA | -0.00798
GACCTTG | 0.0854
AGTCTGT | -0.0404

Sequence | uncleaved DNA left (log2)
TACTCTG | 0.0602
AGACTCA | 0.0713
GCGGAAG | -0.0814
CGTTAGT | -0.0354
CTCGAGC | 0.0229
TAACTCT | -0.0311
CAGAAAC | -0.034
AACGGGG | 0.0892
ACCACCT | -0.0147
TCACGCA | -0.12
TGTAGCG | 0.0305
GTCCTTC | -0.0975
TTCACAG | -0.0726
TGTCCCC | 0.0107
CTGAAGT | -0.0719
TGCACAG | 0.0944
CCTGGAA | 0.0769
TATCATG | -0.0913
AATACTT | -3.36
GGCTTCG | -0.0586

System: T3, Rep nickase domain of cabbage leaf curl virus
T3 sequence (residues 1-116 of Rep, tag left off): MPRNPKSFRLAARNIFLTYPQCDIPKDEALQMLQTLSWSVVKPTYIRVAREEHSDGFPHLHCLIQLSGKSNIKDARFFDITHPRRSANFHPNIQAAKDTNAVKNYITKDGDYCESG
Experiment: as above
Procedure: as §1

Sequence | uncleaved DNA left (log2)
ATACATA | -0.145
GTGAGCG | -0.805
CACCATA | -0.271
CCTCGCA | -0.272
AGGTTGC | -0.71
TGCCGTG | -0.462
GTCAGAG | 0.39
GCCAGGC | 0.0318
ATCCGGA | 0.126
GTTCGAG | 0.435
GAGGATG | 0.0608
CGTCGTT | -0.205
CGAGTCA | 0.0456
GCAGTCG | -0.695
TACCGTT | -1.25
ATGGGAA | 0.219
ATAGCGC | -0.856
TCATGGA | -0.00785
GACCTTG | -0.111
AGTCTGT | 0.0797

Sequence | uncleaved DNA left (log2)
TACTCTG | 0.0128
AGACTCA | 0.507
GCGGAAG | -0.246
CGTTAGT | 0.0942
CTCGAGC | 0.154
TAACTCT | -3.86
CAGAAAC | 0.0549
AACGGGG | 0.841
ACCACCT | -0.227
TCACGCA | -0.222
TGTAGCG | -0.752
GTCCTTC | 0.24
TTCACAG | -0.586
TGTCCCC | 0.449
CTGAAGT | -0.139
TGCACAG | -0.335
CCTGGAA | 0.18
TATCATG | -0.57
AATACTT | -1.81
GGCTTCG | -0.00637
